The list shows a part of the results.
B1: PhoQ; a variant is named by its letters at X, in order, P23837 (parent)
chain: MKKLLRLFFPLSLRVRFLLATAAVVLVLSLAYGMVALIGYSVSFDKTTFRLLRGESNLFYTLAKWENNKLHVELPENIDKQSPTMTLIYDENGQLLWAQRDVPWLMKMIQPDWLKSNGFHEIEADVNDTSLLLSGDHSIQQQLQEVREDDDDAEMTHSVAVNVYPATSRMPKLTIVVVDTIPVELKSSYMVWSWFIYVLSANLLLVIPLLWVAAWWSLRPIEALAKEVRELEEHNRELLNPATTRELTSLVRNLNRLLKSERERYDKYRTTLTDLTHSLKTPLXXLQXXLRSLRSEKMSVSDAEPVMLEQISRISQQIGYYLHRASMRGGTLLSRELHPVAPLLDNLTSALNKVYQRKGVNISLDISPEISFVGEQNDFVEVMGNVLDNACKYCLEFVEISARQTDEHLYIVVEDDGPGIPLSKREVIFDRGQRVDTLRPGQGVGLAVAREITEQYEGKIVAGESMLGGARMEVIFGRQHSAPKDE

Variants of: B1
Test: enrichment ratio after two sorts for PhoP signalling (ratio (wild type AVST 3.29)); higher = more functional
Conditions: with PhoP (E. coli)

Variant | enrichment ratio
QKDS | ≤ 0.25
LLIF | ≤ 0.25
YFHW | ≤ 0.25
YGTC | ≤ 0.25
AHSM | 4.11
AAVR | 1.39
KRIV | ≤ 0.25
TRLP | ≤ 0.25
PDSV | ≤ 0.25
CTGH | ≤ 0.25
FCKL | ≤ 0.25
FLKH | ≤ 0.25
RAWL | ≤ 0.25
IVGQ | ≤ 0.25
QTIA | ≤ 0.25
GKNM | ≤ 0.25
PTLN | ≤ 0.25
RDNK | ≤ 0.25
MAWH | 1.71
TEHG | 6.55
ELHE | ≤ 0.25
TKWI | ≤ 0.25
LASV | ≤ 0.25
AFPK | ≤ 0.25
IGRG | ≤ 0.25

Variant | enrichment ratio
FNML | 4
PHAG | ≤ 0.25
GEHR | ≤ 0.25
YNCL | ≤ 0.25
RPQI | 1.11
LVFF | ≤ 0.25
KENP | ≤ 0.25
FSEK | ≤ 0.25
ISAA | ≤ 0.25
QNRF | ≤ 0.25
NARV | ≤ 0.25
KICA | ≤ 0.25
YQLQ | 2.26
DSKL | ≤ 0.25
THYP | ≤ 0.25
VWFQ | ≤ 0.25
AGIT | 1.83
EDPS | ≤ 0.25
GHDK | ≤ 0.25
YVHM | ≤ 0.25
ESKC | ≤ 0.25
VSVE | ≤ 0.25
QPYT | ≤ 0.25
RLEW | ≤ 0.25
PRYG | ≤ 0.25

Variant | enrichment ratio
GELV | 10.8
ANDP | ≤ 0.25
IDGY | ≤ 0.25
AETQ | ≤ 0.25
NNYW | ≤ 0.25
FNDR | ≤ 0.25
VVTV | ≤ 0.25
ICLL | 10.3
PNIC | ≤ 0.25
PAAN | ≤ 0.25
PQED | ≤ 0.25
EISQ | ≤ 0.25
GDFN | ≤ 0.25
GYKD | ≤ 0.25
AACM | 2.51
FHIM | ≤ 0.25
TFGQ | ≤ 0.25
PMWG | ≤ 0.25
RSHC | ≤ 0.25
IILV | 1.58
WKMQ | ≤ 0.25
SKRW | ≤ 0.25
KCTN | ≤ 0.25
NKQN | ≤ 0.25
WGRP | ≤ 0.25

Variant | enrichment ratio
TRCG | ≤ 0.25
FYNL | ≤ 0.25
HVRN | ≤ 0.25
DCGF | ≤ 0.25
ECMY | ≤ 0.25
YPLV | ≤ 0.25
FNLC | ≤ 0.25
TMCY | 0.423
QLWH | ≤ 0.25
SSQF | 0.505
MDGA | ≤ 0.25
EEPT | ≤ 0.25
AQGE | ≤ 0.25
KLNV | ≤ 0.25
KHYP | ≤ 0.25
WMHA | ≤ 0.25
IQLD | ≤ 0.25
QDFR | ≤ 0.25
NDIK | ≤ 0.25
WCSP | ≤ 0.25
HRTS | ≤ 0.25
NQSQ | ≤ 0.25
MAFG | 0.508
ERWS | ≤ 0.25
QCAS | ≤ 0.25

Variant | enrichment ratio
IRWK | ≤ 0.25
VDKH | ≤ 0.25
LQTY | ≤ 0.25
TDQC | ≤ 0.25
HFSF | 0.903
EIDK | ≤ 0.25
RISK | ≤ 0.25
MRIQ | ≤ 0.25
HVAF | ≤ 0.25
HVGM | ≤ 0.25
FRNN | ≤ 0.25
FRGA | ≤ 0.25
HFPA | ≤ 0.25
RERL | ≤ 0.25
LAMA | ≤ 0.25
WWMH | ≤ 0.25
PWFN | ≤ 0.25
EVTP | ≤ 0.25
GMQP | ≤ 0.25
SWPD | ≤ 0.25
FIDD | ≤ 0.25
AHCY | 12.7
PQPY | ≤ 0.25
SRPW | ≤ 0.25
GIFT | ≤ 0.25

Variant | enrichment ratio
WLQY | ≤ 0.25
QCWT | ≤ 0.25
YMIE | ≤ 0.25
SEYF | 3.94
HPGH | ≤ 0.25
TACQ | 15
PRIK | ≤ 0.25
MYSN | ≤ 0.25
GEAC | ≤ 0.25
MSIG | ≤ 0.25
THQS | 1.05
LPYL | ≤ 0.25
YVPK | ≤ 0.25
MNKD | ≤ 0.25
SVKW | ≤ 0.25
HGQI | ≤ 0.25
SNGP | ≤ 0.25
MWTI | ≤ 0.25
PMFF | ≤ 0.25
IGGK | ≤ 0.25
QKYN | ≤ 0.25
VPAH | ≤ 0.25
SDCI | 4.22
DDQV | ≤ 0.25
FAQG | ≤ 0.25

Variant | enrichment ratio
INWV | ≤ 0.25
QPKE | ≤ 0.25
LYET | ≤ 0.25
SPTN | ≤ 0.25
MKTD | ≤ 0.25
ADNS | ≤ 0.25
RTWW | ≤ 0.25
NKPR | ≤ 0.25
FSGG | ≤ 0.25
QERS | ≤ 0.25
ENMI | ≤ 0.25
WQHG | ≤ 0.25
LIQY | ≤ 0.25
DFHG | ≤ 0.25
DKSQ | ≤ 0.25
KNAF | ≤ 0.25
VFNM | ≤ 0.25
WQRH | ≤ 0.25
AVTL | 12.5
WCSN | ≤ 0.25
GVCQ | 11
STNY | 14.2
RWTT | ≤ 0.25
NGGP | ≤ 0.25
QVWY | 1.35

Variant | enrichment ratio
RHFD | 0.682
FWQM | ≤ 0.25
FERL | ≤ 0.25
NEAL | ≤ 0.25
LTLV | 1.55
DAMR | ≤ 0.25
SFLM | 4.5
CTCP | ≤ 0.25
FISW | ≤ 0.25
NFNV | ≤ 0.25
SAEG | ≤ 0.25
IRLL | ≤ 0.25
PQYA | ≤ 0.25
TWKI | ≤ 0.25
KLTE | ≤ 0.25
YLCH | 0.441
TVNI | 12.6
YMLN | ≤ 0.25
WSIR | 0.354
VEDL | ≤ 0.25

— a collection of fitness landscapes (doi:10.1126/science.1257360)
